{"source": "PubChem BioAssay AID651820", "about": "(National Center for Advancing Translational Sciences (NCATS), 2012)", "note": "The campaign covered roughly 340,000 compounds. About 12,000 (3.5%) were called active. Inconclusive results, whose numbers are uncertain, are shown with a selection of clear calls. Calls follow the shape of the dose curve; as a rule, active = well fitted inhibition curve with a large enough effect; inconclusive = small, poorly fitted or top-dose-only effect, or another doubt; inactive = no such curve, though single readings can be large or run the other way. Potencies of inconclusive entries are left out as doubtful fits. % is scaled to controls: 0 for no effect and ±100 for the full control effect; potency is read from the fitted curve at half-maximal effect; tags tell the direction and shape of the fitted curve.", "data": [{"assay": "qHTS Assay for Inhibitors of Hepatitis C Virus (HCV)", "conditions": "Huh7.5.1 HCVcc-Cre (HCVcc is cell-culture hepatitis C virus) infection, luciferase reporter, 44 h; activity change, negative = inhibition: at 41.8 µM (top of the series) unless noted", "how_it_was_run": "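Cells (1,000/well) were plated 4 h before compound, then infected with HCVcc-Cre virus (~0.5 moi). After 44 h further culture, infection was read as luciferase luminescence following a 15 min substrate incubation at room temperature.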", "values": [{"smiles": "COc1cc(Cl)cc(CN2CCC(CCC(=O)NC3CC3)CC2)c1OC", "Potency": "inconclusive [inhibitor, partial curve]"}, {"smiles": "COc1ccc(NC(=O)c2cc(-c3ccc(C)cc3)on2)cc1OC", "Potency": "inactive"}, {"smiles": "O=C(NCc1ccc(Cl)cc1)c1cccnc1", "Potency": "inactive"}, {"smiles": "Clc1cccc(Cl)c1C1=NOC(c2nnc(-c3ccccc3)o2)C1", "note": "(stereo unspecified)", "Potency": "inconclusive [inhibitor, single point]"}, {"smiles": "CCCn1c(-c2ccc(OC)cc2)nc2ccccc21", "Potency": "inactive"}, {"smiles": "Cc1ccc(C)c(S(=O)(=O)Nc2ccc(C(=O)NCCCN3CCOCC3)cc2)c1", "activity change, negative = inhibition": "inconclusive: -34.5% [inhibitor]"}, {"smiles": "COc1cccc(NC(=O)c2ccccc2-c2nc(-c3ccc(Cl)cc3)no2)c1", "Potency": "inconclusive [inhibitor, partial curve, poor fit]"}, {"smiles": "O=C1NCCOC(=O)[C@@H](Cc2ccc(F)cc2)CC/C=C/C[C@H]1CC(=O)N(CCO)Cc1ccccc1", "Potency": "active: 11.2 µM"}, {"smiles": "COC(=O)c1sc(SC)c2c1CC(C)(C)C/C2=N/O", "Potency": "inactive"}, {"smiles": "Cn1c(SCC(=O)N2CCN(c3ccccc3)CC2)nnc1-c1ccncc1", "Potency": "inactive"}, {"smiles": "COc1ccc(-c2cc(C(=O)N(C)Cc3cccc(OC)c3OC)c3ccccc3n2)cc1OC", "Potency": "inconclusive [inhibitor, single point]"}, {"smiles": "CC1(C(=O)N(Cc2ccccc2)Cc2ccccc2)CC1(Br)Br", "note": "(stereo unspecified)", "Potency": "inconclusive [inhibitor, single point]"}, {"smiles": "Cc1ccc(C(=O)Nc2cccc(C(F)(F)F)c2)cc1NC(=O)c1csc(-c2ccncc2)n1", "Potency": "inconclusive [inhibitor, partial curve]"}, {"smiles": "O=C(N/N=C\\C=C\\c1ccco1)c1cc(-c2ccc3ccccc3c2)n[nH]1", "Potency": "inconclusive [inhibitor, partial curve]"}, {"smiles": "O=C(CNC(=O)C12CC3CC(CC(C3)C1)C2)OCC(=O)N1CCCCC1", "activity change, negative = inhibition": "inconclusive: -54.3% [inhibitor]"}, {"smiles": "CCN(CCCNC(=O)COc1cc(=O)n(CC)c2ccccc12)c1ccccc1", "Potency": "inconclusive [inhibitor, full curve, poor fit]"}, {"smiles": "O=[N+]([O-])c1ccc2c(c1)-c1ccccc1C2=NO", "Potency": "inconclusive [inhibitor, partial curve]"}, {"smiles": "Cc1ccc2cc(CN(CC3CCCO3)C(=O)NC3CCCCC3)c(=O)[nH]c2c1C", "note": "(stereo unspecified)", "Potency": "inactive"}, {"smiles": "Cc1ccc(-c2noc(N=O)c2NO)cc1", "Potency": "inactive"}, {"smiles": "O=S(=O)(c1ccccc1Cl)N1CCCC1c1nc(-c2ccc(Cl)cc2)no1", "note": "(stereo unspecified)", "Potency": "active: 10 µM"}, {"smiles": "Cc1[nH]c(=O)[nH]c(=O)c1NC(=O)c1sc2nc3c(C)cccc3cc2c1N", "Potency": "inconclusive [inhibitor, single point]"}, {"smiles": "Cc1ccc(NC(=O)CN(C)C(=O)COc2c(Cl)cc(Cl)c3ccc(C)nc23)cc1", "Potency": "inactive"}, {"smiles": "c1ccc(-c2cc3cc4c(cc3cn2)OCO4)cc1", "Potency": "inconclusive [inhibitor, partial curve, poor fit]"}, {"smiles": "C[C@H](CO)N1C[C@H](C)[C@@H](CN(C)Cc2ccccc2)Oc2c(NC(=O)c3ccncc3)cccc2C1=O", "Potency": "inconclusive [inhibitor, single point]"}, {"smiles": "O=C(CCCCCN1C(=O)c2ccccc2C1=O)NCc1ccco1", "Potency": "inactive"}, {"smiles": "COC(=O)[C@]1(C)CCC[C@@]2(C)C3CC[C@@]4(C)C[C@]3(CCC21)CC(=O)N4C", "note": "(stereo partly specified)", "Potency": "inconclusive [inhibitor, full curve]"}, {"smiles": "CSc1ccc(CN(C)CC(=O)Nc2ccccc2Br)cc1", "Potency": "inconclusive [inhibitor, single point]"}, {"smiles": "COc1ccc(NC(=O)CN2CCN(C3c4ccccc4-c4ccccc43)CC2)c(OC)c1", "Potency": "inconclusive [inhibitor, full curve]"}, {"smiles": "COc1ccc2[nH]c(=O)c(CN(Cc3nnnn3Cc3ccccc3)CC3CCCO3)cc2c1", "note": "(stereo unspecified)", "Potency": "inactive"}, {"smiles": "O=C(CN1C(=O)c2cccc([N+](=O)[O-])c2C1=O)NCc1ccccc1", "Potency": "inactive"}, {"smiles": "COc1ccccc1CNC(=O)N1CCN(c2ccccc2C)CC1", "Potency": "inconclusive [inhibitor, single point]"}, {"smiles": "Cc1cc(NC(=O)CSc2nnnn2-c2ccccc2C)no1", "Potency": "inactive"}, {"smiles": "CN(C(=S)Nc1ccc(Oc2ccccc2)cc1)c1ccc(O)cc1", "Potency": "inconclusive [inhibitor, partial curve, poor fit]"}, {"smiles": "COC(=O)Cc1ccc(NC(=S)Nc2cccc(C)n2)cc1", "Potency": "inconclusive [inhibitor, full curve, poor fit]"}, {"smiles": "Clc1ccc(CN2CCN(c3ncnc4scc(-c5cccs5)c34)CC2)cc1", "Potency": "inconclusive [inhibitor, single point]"}, {"smiles": "O=C(Nc1cccc(-c2nc3ccccc3o2)c1)c1cccnc1", "Potency": "inconclusive [inhibitor, single point]"}, {"smiles": "C=CCN(CC=C)CCCOc1ccccc1C(=O)OC", "Potency": "inactive"}, {"smiles": "O=C(c1ccc(-c2cccc(C(F)(F)F)c2)o1)N1CCOCC1", "Potency": "inconclusive [inhibitor, partial curve]"}, {"smiles": "Cc1ccc(OCC(=O)Nc2ccc(S(=O)(=O)Nc3ccccn3)cc2)c(C)c1", "Potency": "inconclusive [inhibitor, single point]"}, {"smiles": "Cc1ccc(-n2nc(C)c(=O)c(-c3ccccc3)c2NC(=O)C(C)C)cc1", "Potency": "inactive"}, {"smiles": "Cc1cccc(CCNS(=O)(=O)c2cc3c(cc2C)NC(=O)CO3)c1", "Potency": "inactive"}, {"smiles": "COc1ccc(C2=NC(C(F)(F)F)(C(F)(F)F)c3c(n(C)c(=O)n(C)c3=O)N2)cc1", "Potency": "inconclusive [inhibitor, single point]"}, {"smiles": "CC(C)OCCCNC(=O)c1ccc(CN2CCc3ccccc3C2)cc1", "Potency": "inconclusive [inhibitor, partial curve]"}, {"smiles": "C/C(=N\\NC(=O)C(C)n1nc(C)c([N+](=O)[O-])c1C)c1ccccc1O", "note": "(stereo unspecified)", "Potency": "active: 2.51 µM"}, {"smiles": "COc1ccc2nc(Nc3ccc4c(c3)OCO4)sc2c1", "Potency": "inconclusive [inhibitor, partial curve]"}, {"smiles": "CC(C)(C)[C@@H]1COC(=O)[C@@H](Cc2ccc(F)cc2)C/C=C\\C[C@H](CC(=O)N(CCO)Cc2ccccc2)C(=O)N1", "Potency": "inconclusive [inhibitor, partial curve]"}]}]}
